The source of these data is article PMC6212790.

The other results are listed elsewhere or left out. At the low end of the ranking, values are background and their order means little.

This assay deals with T1, GST-Rok (full length) (UniProt O34857).
T1 sequence: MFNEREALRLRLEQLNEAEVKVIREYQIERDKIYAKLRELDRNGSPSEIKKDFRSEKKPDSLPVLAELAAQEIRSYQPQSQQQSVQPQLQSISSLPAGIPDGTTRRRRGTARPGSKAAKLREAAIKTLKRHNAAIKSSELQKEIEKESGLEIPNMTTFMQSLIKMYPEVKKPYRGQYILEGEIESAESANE
The assay is described as follows: protein binding microarray.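 Also: rank score from −0.5 (least bound) to 0.5 (best bound).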 The following applies: Rok is a gene silencer of Bacillus subtilis; high values mean tight binding; most listed sequences are background and not binding sites; double strand, one strand shown.
Sequence ACGGGGGA registered a binding signal of -0.386 E-score.

In turn, ATACCTTC returned a binding signal of 0.0433 E-score.

In turn, CATGTTTC registered a binding signal of 0.149 E-score.

As to TATACAGA, the binding signal was determined as 0.342 E-score.

AGCAGTCC returned a binding signal of 0.0185 E-score.

Sequence ATGCTCCG registered a binding signal of -0.153 E-score.

The sequence AAGGGGGT showed a binding signal of -0.422 E-score.

The sequence CGTAATAG showed a binding signal of 0.318 E-score.

On to AGGAGTAC, for which the binding signal was -0.115 E-score.

The sequence CCTTCCAC had a binding signal of -0.276 E-score.

CAACGGGG came in with a binding signal of -0.143 E-score.

For the sequence TACCAGCA, the binding signal is 0.135 E-score.

TATGAAGA registered a binding signal of 0.0992 E-score.

The sequence GAGTACAA registered a binding signal of 0.0966 E-score.

For the sequence CACTAAAG, the binding signal worked out at 0.0834 E-score.

Consider ATCCGTGC, for which the binding signal is 0.097 E-score.

As for GAGCTTGC, the binding signal is -0.302 E-score.

AATAACTA displayed a binding signal of 0.341 E-score.

The sequence CTTAGTAC displayed a binding signal of 0.206 E-score.

As for AGTTTCTA, the binding signal amounted to 0.402 E-score.

Sequence GGGACTAC yielded a binding signal of 0.0192 E-score.

Turning to AGTCATAG, the binding signal amounted to 0.112 E-score.

Regarding ATCGTGTA, the binding signal was found to be 0.252 E-score.

As to CATCTCAC, the binding signal is -0.246 E-score.

Sequence GACCAAAA had a binding signal of -0.108 E-score.

For AACACAAG, the binding signal came out at 0.000927 E-score.

The sequence AATCTCCT had a binding signal of 0.108 E-score.

Take GAGGGAGA: the binding signal was -0.227 E-score.

For the sequence ACATAAGA, the binding signal worked out at 0.126 E-score.

For AGCACCTC, the binding signal is -0.162 E-score.

The sequence ATGTTAGG yielded a binding signal of 0.0845 E-score.

With AGCGGTAA, the binding signal turned out to be 0.192 E-score.

The sequence ACGTCAAA gave a binding signal of 0.00189 E-score.

Sequence GGCACGCA displayed a binding signal of -0.223 E-score.

CCGTACAC showed a binding signal of -0.145 E-score.

In turn, CAAGTGAC returned a binding signal of -0.0124 E-score.

In turn, GTATTGAC gave a binding signal of 0.205 E-score.

The sequence CCTTGCAG registered a binding signal of -0.247 E-score.

For the sequence AGGGCAGA, the binding signal was -0.345 E-score.

The sequence CAAGCCAG yielded a binding signal of -0.267 E-score.

TAGATCTA returned a binding signal of 0.303 E-score.

CATACCCG returned a binding signal of -0.164 E-score.

In turn, TGTTTGAA displayed a binding signal of 0.00396 E-score.

ATCGCTGG came in with a binding signal of -0.168 E-score.

CTCCATAA showed a binding signal of -0.13 E-score.

Sequence ACTCTGCT displayed a binding signal of -0.0655 E-score.

The sequence GCGCGGCA gave a binding signal of -0.194 E-score.

Consider CCAGCGAC, for which the binding signal is -0.0112 E-score.

AAGGACCT came in with a binding signal of -0.17 E-score.

As for ATCACGGG, the binding signal is -0.204 E-score.

With AAGATATG, the binding signal was determined as 0.069 E-score.

As to GCCGAAGC, the binding signal was -0.33 E-score.

AGTTGACG displayed a binding signal of -0.0447 E-score.

GAAAAGTA had a binding signal of 0.262 E-score.

CCCCGGAC: the binding signal is -0.303 E-score.

For AAATGGAA, the binding signal is -0.0394 E-score.

For AGCCTCTC, the binding signal is -0.165 E-score.

Turning to AAAACCAG, the binding signal is -0.0134 E-score.

In turn, ACCTAAAT gave a binding signal of 0.291 E-score.

GTGACGAA displayed a binding signal of -0.0125 E-score.

The sequence ACGCAACA yielded a binding signal of 0.0166 E-score.

Sequence GCAATGCA returned a binding signal of 0.063 E-score.

AGACCTAG came in with a binding signal of 0.0302 E-score.

Regarding TCTATAAA, the binding signal is 0.186 E-score.

With GACTCTCA, the binding signal is -0.0714 E-score.

Sequence ACAAAGTA displayed a binding signal of 0.288 E-score.

CCCAGGCC yielded a binding signal of -0.356 E-score.

Sequence CCCTCCCC came in with a binding signal of -0.462 E-score.

The sequence CACGAGCA had a binding signal of -0.0918 E-score.

GATCTTAC came in with a binding signal of 0.189 E-score.

On to ACATATAA, for which the binding signal worked out at 0.329 E-score.

Sequence ATAAATGC returned a binding signal of 0.219 E-score.

Sequence GAATAAGA showed a binding signal of 0.0395 E-score.

For ACGTTAAA, the binding signal stood at 0.0739 E-score.

The sequence ATGGAGCG yielded a binding signal of -0.152 E-score.

The sequence AGGGAATG yielded a binding signal of -0.0807 E-score.

Sequence TGAGGAAA displayed a binding signal of -0.105 E-score.

Regarding CATCGTCC, the binding signal was -0.151 E-score.

In turn, CCACCGTC came in with a binding signal of -0.215 E-score.

Sequence CCCTTTCA gave a binding signal of -0.179 E-score.

On to AGAGGTAA, for which the binding signal was 0.212 E-score.

For the sequence GTTGGCAA, the binding signal is 0.0293 E-score.

Turning to CATTTACC, the binding signal worked out at 0.064 E-score.

In the case of ATATAGTC, the binding signal worked out at 0.25 E-score.

For the sequence AATTAAGC, the binding signal is -0.0262 E-score.

CATTTATA: the binding signal came out at 0.317 E-score.

With AATGTGTC, the binding signal came out at 0.0624 E-score.

GATTTAGC yielded a binding signal of 0.0826 E-score.

Regarding CCGGTCAG, the binding signal worked out at 0.121 E-score.

Sequence CATGGCCG showed a binding signal of -0.189 E-score.

With ACACATGC, the binding signal was -0.0345 E-score.

Take ACATCGGC: the binding signal was -0.0779 E-score.

On to ACACTCCG, for which the binding signal is -0.118 E-score.

For the sequence CCAATCGA, the binding signal amounted to 0.0148 E-score.
